Several values for one entry are separate records, joined by “and”; a condition that tells them apart may be missing. Identical values can stand only once. Screen size: about 410,000 compounds; about 6,400 (1.6%) were called active. The inconclusive results got no clear call from the source; some entries with a clear call stand among them for comparison. Calls come from the whole dose curve; as a rule, active = well fitted inhibition curve with a large enough effect; inconclusive = small, poorly fitted or top-dose-only effect; inactive = no such curve, though single readings can be large or run the other way. Where the call is inconclusive, the potency comes from a doubtful curve fit.
molecular target: Glucagon-like peptide 1 receptor (Homo sapiens) (UniProt P43220); experiment: qHTS of GLP-1 Receptor Inverse Agonists (Inhibition Mode); conditions: HEK293 GLP-1R CRE-luciferase, luminescence, 24 h, GLP-1R form is constitutively active; series mostly up to 38.3 µM; note: nearly all actives have a fitted effect of over 55% in size
Method in brief: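 Readout was luciferase luminescence, measured 12 min after detection reagent at room temperature. Beforehand, GLP-1R reporter HEK293 cells had sat 12 h, then received compounds for 24 hr at 37 deg C.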
Potency is the fitted concentration of half-maximal effect; tags give direction and shape of the fitted curve.

UniProt P43220, sequence (P43220 whole entry, looked up): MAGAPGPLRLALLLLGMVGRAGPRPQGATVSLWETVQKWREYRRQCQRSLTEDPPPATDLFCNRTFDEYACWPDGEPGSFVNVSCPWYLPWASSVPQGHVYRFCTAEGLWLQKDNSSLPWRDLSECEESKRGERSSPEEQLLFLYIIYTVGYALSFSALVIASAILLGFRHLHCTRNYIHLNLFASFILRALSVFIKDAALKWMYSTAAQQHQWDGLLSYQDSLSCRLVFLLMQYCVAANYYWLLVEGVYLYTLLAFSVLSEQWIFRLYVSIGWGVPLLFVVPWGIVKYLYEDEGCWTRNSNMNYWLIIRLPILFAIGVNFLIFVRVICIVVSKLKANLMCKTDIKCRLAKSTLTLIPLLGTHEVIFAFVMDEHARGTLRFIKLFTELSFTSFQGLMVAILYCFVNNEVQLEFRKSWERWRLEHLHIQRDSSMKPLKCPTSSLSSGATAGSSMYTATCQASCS

SMILES | Potency
Cc1c(C(=O)OC2CCCCC2)[nH]c2c1C(=O)CC(C)(C)C2 | inconclusive: 10 µM [inhibitor, partial curve, poor fit]
Cc1cccc(NC(=O)CSCC(=O)Nc2cc(C(F)(F)F)ccc2N2CCOCC2)c1 | inconclusive: 12.6 µM [inhibitor, partial curve, poor fit]
S=C(NCc1ccco1)NCc1ccccc1Cl | inconclusive: 8.91 µM [inhibitor, partial curve, poor fit]
CCOC(=O)N1CCN(C(=O)CNC(=O)c2ccc(Br)cc2)CC1 | inactive
C=CS(=O)(=O)c1ccc(Oc2ccc(S(=O)(=O)C=C)cc2)cc1 | inconclusive: 5.01 µM [inhibitor, full curve, poor fit]
COc1ccc(C(=S)N2CCOCC2)cc1OC(=O)c1ccc(C)cc1 | inconclusive: 7.08 µM [inhibitor, partial curve, poor fit]
O=C1c2cccc(OCC(=O)N3CCCc4ccccc43)c2CCN1Cc1ccc(Br)cc1 | inconclusive: 25.1 µM [inhibitor, partial curve, poor fit]
Cc1cc(C)nc(/N=C(\N)Nc2cccc(OCc3ccccc3)c2)n1 | inconclusive: 11.2 µM [inhibitor, partial curve, poor fit]
CCN(CC)S(=O)(=O)c1ccc(S(=O)(=O)N(CC(=O)Nc2ccccc2)Cc2ccco2)cc1 | inconclusive: 5.01 µM [inhibitor, full curve, poor fit]
Cc1ccc(N(c2ncnc(N)c2[N+](=O)[O-])C2CCCCC2)cc1 | inactive
Cc1cccc(-n2cc(CN(C)Cc3nccn3C)c(-c3cccc(F)c3)n2)c1 | inconclusive: 22.4 µM [inhibitor, single point]
COc1cc(F)ccc1-c1csc(C(O)c2ccc(F)c(F)c2)n1 (stereo not given) | inconclusive: 28.2 µM [inhibitor, single point]
CNC(=S)N/N=C(\C)c1ccc2c(c1)OCCO2 | inconclusive: 28.2 µM [inhibitor, single point]
CCc1nn(CCCC(=O)N2CCN(c3cc(Cl)ccc3C)CC2)c(=O)c2cc3occc3n12 | inconclusive: 22.4 µM [inhibitor, single point]
COn1c2c(c3c4nonc4ccc31)CCCC2 | inactive
Cc1ccoc1C(=O)Nc1ccc2ccccc2c1 | inconclusive: 10 µM [inhibitor, partial curve, poor fit]
CCOc1ccc2nc(NC(=O)C3CCCN(S(=O)(=O)c4c(C)noc4C)C3)sc2c1 (stereo not given) | inconclusive: 3.55 µM [inhibitor, partial curve, poor fit]
N#C/C(=C/c1ccc(Sc2nc3ccccc3[nH]2)o1)c1cccc(Br)c1 | active: 10 µM
CCCCOc1ccc(NC(=O)CSc2nnnn2C)cc1 | inactive
O=C(Nc1ccc(Oc2ccc(NC(=O)Nc3ccc([N+](=O)[O-])cc3)cc2)cc1)Nc1ccc([N+](=O)[O-])cc1 | inconclusive: 11.2 µM [inhibitor, partial curve, poor fit]
COC(=O)C1=[N+]([O-])OC(C(=O)OC)C1c1c[nH]c2ccccc12 (stereo not given) | inactive
Oc1c(C=C2N=c3ccccc3=N2)sc(=S)n1-c1ccc(F)cc1 | inconclusive: 10 µM [inhibitor, partial curve, poor fit] and inconclusive: 3.98 µM [inhibitor, partial curve]

SMILES | Potency
O=C(CS(=O)(=O)c1ccccc1)c1cc2ccccc2oc1=O | inactive
O=C(N[C@@H](Cc1ccccc1)C(=O)OCc1ccccc1)c1nc[nH]c1C(=O)N[C@@H](Cc1ccccc1)C(=O)OCc1ccccc1 | inconclusive: 28.2 µM [inhibitor, single point]
COc1ccc(C(=O)O/N=C(/c2cccs2)C(C)(C)C)cc1 | inactive
CC(C)CC(=O)Nc1nc2c(s1)CC(C(C)(C)C)CC2 (stereo not given) | inconclusive: 11.2 µM [inhibitor, partial curve]
CCCCOC(=O)c1ccc(NC(=O)c2c(OC)cccc2OC)cc1 | inconclusive: 31.6 µM [inhibitor, single point]
COC(=O)c1cc(NC(=O)c2ccoc2C)cc(C(=O)OC)c1 | inconclusive: 28.2 µM [inhibitor, single point]
COc1ccc(C(=O)CSc2nnc(CNc3nc(-c4ccccc4)cs3)n2C)cc1 | inconclusive: 28.2 µM [inhibitor, partial curve, poor fit]
CCCCCCC1(C)NC(=S)N(c2ccccc2)N1 (stereo not given) | inconclusive: 11.2 µM [inhibitor, single point]
CCOC(=O)N1CCc2c(sc3c2c(=O)n(Cc2ccccc2)c(=O)n3Cc2cc(C)ccc2C)C1 | inactive
O=C(CN1CCC(O)(c2cccc(F)c2)CC1)NCCc1c[nH]c2ccccc12 | inconclusive: 10 µM [inhibitor, partial curve, poor fit]
CCN(Cc1ccncc1)C(=O)CSc1ccc2ccccc2c1 | inconclusive: 12.6 µM [inhibitor, single point]
COc1ccc([C@H]2C[C@@H](O)[C@H](n3cc(C4CC4)nn3)CN2Cc2cccs2)cc1 | inconclusive: 28.2 µM [inhibitor, single point]
Cc1ccc(S(=O)(=O)N(C)CCCC(=O)Nc2ccc(F)cc2)cc1 | inconclusive: 14.1 µM [inhibitor, single point]
CC(C)Cn1cc(NC(=O)Nc2cccc(C(F)(F)F)c2)c2ccccc2c1=O | inconclusive: 11.2 µM [inhibitor, partial curve, poor fit]
Cn1cccc1CC(=O)N/N=C/C=C/c1ccco1 | inactive
CC(=O)N1CCc2cc(S(=O)(=O)NC(CC(C)C)C(=O)Nc3ccc(C(C)C)cc3)ccc21 (stereo not given) | inactive
COc1ccc(C2c3[nH]c4ccccc4c3CCN2CCCn2cccn2)c(C)c1C (stereo not given) | inconclusive: 12.6 µM [inhibitor, partial curve, poor fit]
CCn1c(C)nc2cc(C(=O)N/N=C/c3cccc(OC)c3O)ccc21 | inconclusive: 11.2 µM [inhibitor, single point]
O=C(CSc1nc2cccc(F)c2c(=O)n1-c1ccccc1)Nc1ccc2c(c1)CCC2 | inconclusive: 1.26 µM [inhibitor, partial curve, poor fit]
O=C(NC1CCN(C(=O)NCc2ccccc2)CC1)c1cccc(F)c1 | inactive
Cc1ccc(SCCNC(=S)Nc2cc(C)ccc2C)cc1 | inconclusive: 12.6 µM [inhibitor, single point]
COc1ccc(CNC(=O)c2ccc3nc(CCc4ccccc4)oc3c2)cc1OC | inconclusive: 4.47 µM [inhibitor, partial curve, poor fit]

SMILES | Potency
Cc1ccc(S(=O)(=O)N2CCOCC2)cc1C(=O)OCC(=O)Nc1ccc(Cl)cn1 | inconclusive: 10 µM [inhibitor, partial curve, poor fit]
CCOc1ccc(CNC(=O)c2cccc(NC(=O)N3CCSc4ncccc43)c2)cc1 | inactive
Oc1ccc(Br)cc1-c1cc(-c2ccc(Cl)cc2)n[nH]1 | inconclusive: 7.94 µM [inhibitor, partial curve, poor fit]
CCC(=O)NCCc1nc2cc(NC(=O)Nc3ccccc3)ccc2n1C | inconclusive: 28.2 µM [inhibitor, single point]
Cc1ccc(CCNC(c2ccc(F)cc2)c2nnc(-c3ccccc3Cl)o2)cc1 (stereo not given) | inconclusive: 11.2 µM [inhibitor, single point]
Cc1ccc(C(=O)NC(=S)Nc2ccccc2C)cc1 | inconclusive: 28.2 µM [inhibitor, single point]
CC(C)Nc1nc(NC(C)C)nc(N(C)N)n1 | inconclusive: 14.1 µM [inhibitor, single point]
COCCCNCCCCOc1ccc(Br)cc1Cl | inconclusive: 8.91 µM [inhibitor, partial curve]
Cc1cc(C)c2cc(C(=O)Nc3ccc(C)c(F)c3)[nH]c2c1 | inconclusive: 2.82 µM [inhibitor, partial curve]
COc1ccc(CN(C)C(=O)c2ccc(Cl)c(S(=O)(=O)NCc3cccnc3)c2)cc1F | inactive
Cc1ccc(/C(N)=N/OC(=O)c2ccc(F)cc2)cc1 | inactive
CS/C(N)=N/C(=S)Nc1cccc(Cl)c1 | inconclusive: 28.2 µM [inhibitor, single point]
CCOC(=O)N1CCN(C(=O)CN2C(=O)NC(c3ccccc3)(c3ccccc3)C2=O)CC1 | inconclusive: 1.78 µM [inhibitor, partial curve, poor fit]
CCCN1C(=O)/C(=C\c2ccncc2)SC1=Nc1ccccc1 | inactive
COc1ccc(CNC(=O)CCc2cn(C)c3ccccc23)cc1 | inactive
Cc1ccccc1SCc1noc(C(=O)NC(C)C)c1C(=O)O | inconclusive: 17.8 µM [inhibitor, single point]
O=C(CC1CCCC1)Nc1nc2ccccc2[nH]1 | inconclusive: 28.2 µM [inhibitor, single point]
O=C(c1cc2c(s1)CCCC2)N1CCN(Cc2ccc3c(c2)OCO3)CC1 | active: 12.6 µM
COc1ccccc1N(CC(O)CN1CCC(C)CC1)S(=O)(=O)c1ccccc1 (stereo not given) | inconclusive: 28.2 µM [inhibitor, single point]
Cc1cc(C)cc(N(CCC#N)C(=O)COC(=O)c2ccc(OCc3c(C)noc3C)cc2)c1 | inconclusive: 28.2 µM [inhibitor, single point]
Cc1cc(C)cc(N(CC(=O)NCCSCc2ccco2)S(C)(=O)=O)c1 | inconclusive: 28.2 µM [inhibitor, single point]

Source: PubChem BioAssay AID624417 (National Center for Advancing Translational Sciences (NCATS), 2012)
